Assay results from the supplement of paper PMC6828730.
This is one part of the list. Most values come without repeats; read them as rough.

How the values were obtained:
[1] = test system: hiPSC-derived cardiomyocytes; experiment: time to death of most cells in well after compound addition (days); higher = less cardiotoxic; settings: screen: 1; 10 µM
[2] = test system: hiPSC-derived cardiomyocytes; experiment: time to death of most cells in well after compound addition (days); higher = less cardiotoxic; extreme values may be limits of the assay; settings: 10 µM

Structure (SMILES): COc1c(C)c(C(=O)c2ccc(N)c(C(=O)O)c2)n2ccccc12
- time to death of most cells in well [1]: > 7
- time to death of most cells in well ([2]; screen: 2): > 7
- time to death of most cells in well ([2]; screen: 3): > 7
- time to death of most cells in well ([2]; screen: 4): > 7

Structure (SMILES): Cc1cc(Nc2cc(CN3CCOCC3)c3nc(C)c(Cc4ccc(Cl)cc4F)n3n2)n[nH]1
- time to death of most cells in well [1]: > 7
- time to death of most cells in well ([2]; screen: 2): > 7
- time to death of most cells in well ([2]; screen: 3): > 7
- time to death of most cells in well ([2]; screen: 4): > 7

Structure (SMILES): C=CC(=O)Nc1cccc(Nc2nc(Nc3ccc(Oc4ccnc(C(=O)NC)c4)cc3)ncc2F)c1
- time to death of most cells in well [1]: > 7
- time to death of most cells in well ([2]; screen: 2): 3.5
- time to death of most cells in well ([2]; screen: 3): > 7
- time to death of most cells in well ([2]; screen: 4): > 7

Structure (SMILES): NC(=O)c1ccc(-c2nc(-c3ccc4c(c3)OCCO4)c(-c3ccccn3)[nH]2)cc1
- time to death of most cells in well [1]: 5
- time to death of most cells in well ([2]; screen: 2): > 7
- time to death of most cells in well ([2]; screen: 3): > 7
- time to death of most cells in well ([2]; screen: 4): > 7

Structure (SMILES): COc1cc2ncnc(Nc3cccc(Cl)c3F)c2cc1OC(=O)N1CCN(C)C[C@H]1C
- time to death of most cells in well [1]: 6.5
- time to death of most cells in well ([2]; screen: 2): 3
- time to death of most cells in well ([2]; screen: 3): > 7
- time to death of most cells in well ([2]; screen: 4): > 7

Structure (SMILES): CC(C)CC(NC(=O)C(Cc1ccccc1)NC(=O)C(CCC(N)=O)NC(=O)C(Cc1ccc(O)cc1)NC(=O)C(C)NC(=O)CNC(=O)C(CCCCN)NC(=O)C(Cc1c[nH]c2ccccc12)NC(=O)C(NC(=O)C(Cc1c[nH]c2ccccc12)NC(=O)C(CCCCN)NC(=O)CNC(=O)C(CC(N)=O)NC(=O)C(CCC(=O)O)NC(=O)C(Cc1c[nH]c2ccccc12)NC(=O)C(NC(=O)C(Cc1c[nH]c2ccccc12)NC(=O)C(CO)NC(=O)CNC(=O)C1CCCN1C(=O)C(Cc1c[nH]c2ccccc12)NC(=O)C(CCC(N)=O)NC(=O)C(Cc1ccccc1)NC(=O)CNC(=O)C(N)Cc1c[nH]cn1)C(C)O)C(C)O)C(=O)NC(CCCCN)C(=O)NCC(=O)NCC(=O)NCC(=O)NCC(=O)NC(CO)C(=O)NC(CCCNC(=N)N)C(=O)NC(CCCNC(=N)N)C(=O)NC(CCCNC(=N)N)C(=O)NC(CCCNC(=N)N)C(=O)NC(CCCNC(=N)N)C(=O)NC(CCCNC(=N)N)C(=O)NC(CCCNC(=N)N)C(=O)NC(CCCNC(=N)N)C(=O)NC(CCCNC(=N)N)C(=O)O (stereo not given)
- time to death of most cells in well [1]: 3.5
- time to death of most cells in well ([2]; screen: 2): 6.5
- time to death of most cells in well ([2]; screen: 3): > 7
- time to death of most cells in well ([2]; screen: 4): > 7

Structure (SMILES): CC(C)NC[C@@H](C(=O)N1CCN(c2ncnc3c2[C@H](C)C[C@H]3O)CC1)c1ccc(Cl)cc1 [Ipatasertib (GDC-0068)]
- time to death of most cells in well [1]: 1
- time to death of most cells in well ([2]; screen: 2): 3.5
- time to death of most cells in well ([2]; screen: 3): > 7
- time to death of most cells in well ([2]; screen: 4): > 7

Structure (SMILES): CS(=O)(=O)N1CCN(Cc2cc3nc(-c4cccc5[nH]ncc45)nc(N4CCOCC4)c3s2)CC1 [Pictilisib (GDC-0941)]
- time to death of most cells in well [1]: 2.5
- time to death of most cells in well ([2]; screen: 2): > 7
- time to death of most cells in well ([2]; screen: 3): > 7
- time to death of most cells in well ([2]; screen: 4): > 7

Structure (SMILES): Fc1cc(-c2cccc3ncc(-c4cnn(C5CCNCC5)c4)nc23)cc(F)c1CN1CCOCC1
- time to death of most cells in well [1]: 5
- time to death of most cells in well ([2]; screen: 2): 3.5
- time to death of most cells in well ([2]; screen: 3): 2.5
- time to death of most cells in well ([2]; screen: 4): 3

Structure (SMILES): CO[C@H]1C[C@@H]2CC[C@@H](C)[C@@](O)(O2)C(=O)C(=O)N2CCCC[C@H]2C(=O)O[C@H]([C@H](C)C[C@@H]2CC[C@@H](O)[C@H](OC)C2)CC(=O)[C@H](C)/C=C(\C)[C@@H](O)[C@@H](OC)C(=O)[C@H](C)C[C@H](C)/C=C/C=C/C=C/1C [Rapamycin (Sirolimus)]
- time to death of most cells in well [1]: 3
- time to death of most cells in well ([2]; screen: 2): > 7
- time to death of most cells in well ([2]; screen: 3): > 7
- time to death of most cells in well ([2]; screen: 4): > 7

Structure (SMILES): CNCc1ccc(-c2cc(-c3nc(-c4ccc(S(=O)(=O)C(C)C)cc4)cnc3N)on2)cc1
- time to death of most cells in well [1]: 3
- time to death of most cells in well ([2]; screen: 2): 2.5
- time to death of most cells in well ([2]; screen: 3): 4
- time to death of most cells in well ([2]; screen: 4): > 7

Structure (SMILES): COc1ncc(-c2cc(-c3ncc(CN4C[C@@H](C)O[C@@H](C)C4)o3)c3cn[nH]c3c2)cc1NS(C)(=O)=O
- time to death of most cells in well [1]: 3.5
- time to death of most cells in well ([2]; screen: 2): > 7
- time to death of most cells in well ([2]; screen: 3): > 7
- time to death of most cells in well ([2]; screen: 4): > 7

Structure (SMILES): O=C(c1ccc(/C=C/c2n[nH]c3ccccc23)cc1)N1CCNCC1
- time to death of most cells in well [1]: 6.5
- time to death of most cells in well ([2]; screen: 2): 3.5
- time to death of most cells in well ([2]; screen: 3): > 7
- time to death of most cells in well ([2]; screen: 4): > 7

Structure (SMILES): Cc1cnc(Nc2ccc(N3CCN(C)CC3)cc2)nc1Nc1cccc(S(=O)(=O)NC(C)(C)C)c1
- time to death of most cells in well [1]: 1.5
- time to death of most cells in well ([2]; screen: 2): 3.5
- time to death of most cells in well ([2]; screen: 3): 6
- time to death of most cells in well ([2]; screen: 4): 3

Structure (SMILES): c1cncc(CN2CCC(n3ncc4c(N5CCOCC5)nc(-c5ccc6[nH]ccc6c5)nc43)CC2)c1
- time to death of most cells in well [1]: 5.5
- time to death of most cells in well ([2]; screen: 2): 4
- time to death of most cells in well ([2]; screen: 3): 6
- time to death of most cells in well ([2]; screen: 4): 4

Structure (SMILES): Cn1cc(-c2ccc3ncc(Cc4ccc5ncccc5c4)n3n2)cn1
- time to death of most cells in well [1]: > 7
- time to death of most cells in well ([2]; screen: 2): > 7
- time to death of most cells in well ([2]; screen: 3): > 7
- time to death of most cells in well ([2]; screen: 4): > 7

Structure (SMILES): CCC[C@H](NC(=O)/C(C#N)=C/c1cccc(Br)n1)c1ccccc1 [Degrasyn (WP1130)]
- time to death of most cells in well [1]: 0
- time to death of most cells in well ([2]; screen: 2): 1
- time to death of most cells in well ([2]; screen: 3): 2.5
- time to death of most cells in well ([2]; screen: 4): > 7

Structure (SMILES): O=C(Nc1cc(C(F)(F)F)cc(C(F)(F)F)c1)c1cc(Cl)ccc1O
- time to death of most cells in well [1]: 1
- time to death of most cells in well ([2]; screen: 2): 0.5
- time to death of most cells in well ([2]; screen: 3): 3
- time to death of most cells in well ([2]; screen: 4): > 7

Structure (SMILES): CC(C)(C)c1nc(-c2cccc(NS(=O)(=O)c3c(F)cccc3F)c2F)c(-c2ccnc(N)n2)s1
- time to death of most cells in well [1]: > 7
- time to death of most cells in well ([2]; screen: 2): > 7
- time to death of most cells in well ([2]; screen: 3): > 7
- time to death of most cells in well ([2]; screen: 4): > 7

Structure (SMILES): CC[C@@H]1C(=O)N(C)c2cnc(Nc3ccc(C(=O)NC4CCN(C)CC4)cc3OC)nc2N1C1CCCC1
- time to death of most cells in well [1]: 4.5
- time to death of most cells in well ([2]; screen: 2): > 7
- time to death of most cells in well ([2]; screen: 3): 3.5
- time to death of most cells in well ([2]; screen: 4): 3
